Measured values as given in the supplement of paper PMC8674133.
Recombinant human monoclonal antibodies (heavy:light variable regions). ELISA EC50 on the named antigen, from 10 µg/ml down; IC50 / IC90 against spike pseudovirus on 293T-ACE2 cells, 48 h; lower = stronger. Calls: IC50 above 1,000 ng/ml = non-neutralizing; EC50 above 2,000 ng/ml = non-binder. The source prints 1000 for neutralization that was not reached; it is given as >1000 ng/ml. A few antibodies were first reported in earlier work of the same group.

B1: C1416 (protein)
chain 1: EVQLVESGGGLVQPGRSLRLSCAASGFTFDDYAMHWVRQAPGKALEWVSGISWNSGSIAYADSVRGRFTISRDNAKNSLYLQMNSLRAEDTALYYCAKDQGNYGDYFDYWGQGTLVTVSS
chain 2: SYELTQPPSVSVAPGKTARITCGGNNIGSKSVHWYQQKPGQAPVLVIYYDSDRPSGIPERFSGSNSGNTATLTISRVEAGDEADYYCQVWDSTSDHYVFGDHYVFGTGTKVTVL
B2: C1246 (protein)
chain 1: QVQLVESGGGLVKPGGSLRLSCAASGFTFSDYYMSWIRQAPGKGLEWVSYISSSGSTIYYADSVKGRFTISRDNAKNSLYLQMNSLRAEDTAVYYCAPQLWLRGAFDYWGQGTLVTVSS
chain 2: NFMLTQPHSVSESPGKTVTISCTRSSGSIASNYVQWYQQRPGSSPTTVIYEDNQRPSGVPDRFSGSIDSSSNSASLTISGLKTEDEADYYCQSYDSSNHAVFGGGTQLTVL
B3: C1264 (protein)
chain 1: EVQLLESGGGLVQPGGSLRLSCAASGFTFSSSAMSWVRQAPGKGLEWVSAFSASGGSTYYADSVKGRFTISRDNSKNTLFLQMNSLRAEDTAVYFCAKTNTGWYLGIDYWGPGTLVTVSS
chain 2: NFMLTQPHSVSESPGKTVTISCTGSSGSIASNYVQWYQQRPGSAPTTVIYEDNQRPSGVPDRFSGSIDSSSNSASLTISGLKTEDEADYYCQSYDSSNLWVFGGGTKLTVL
B4: C1251 (protein)
chain 1: QLQLQESGPGLVKPSETLSLTCAVSGGSISSSSYFWGWIRQPPGRGLEWIGNIYYSGTTYYNPSLKSRVTISVDASKNQFSLKLTSVTAADTAVYYCATQGWLRGYFDYWGQGTLVTVSS
chain 2: NFMLTQPHSVSESPGKTVTISCTGRSGSIASNYVQWYQQRPGSAPSTVIYEDNQRPSGVPDRFSGSIDSSSNSASLTISGLKTEDEADYYCQSYDSSNLVVFGGGTKLTVL
B5: C2465 (protein)
chain 1: VQLVESGGGVVQPGRSLRLSCAASGFTFSSYAMHWVRQAPGKGLEWVAVISYDGSNKYYADSVKGRFTISRDNSKYTLYLQMNSLRAEDTAVYYCASLITMVRGVPDYWGQGTLVTVSS
chain 2: DIQLTQSPSSLSASVGDRVTITCRASQNISNYLNWYQQKPGKAPKLLIYAASSLQSGVPSRFSGSGSGTDFTLTISSLQPEDFASYYCQQSYSTPITFGQGTRLEIK
B6: C2483 (protein)
chain 1: EVQLVESGGGLVQPGRSLRLSCSVSGFTFDEYAMHWVRQAPGKGLEWVSGISWNGGTIGYADSVKGRFTISRDNAKNSLYLQMNSLRAADTALYYCAKDIYPLDYGDAFFFDSWGQGTLVTVSS
chain 2: EIVLTQSPGTLSLSPGERVTLSCRASQRVSSSYLAWYQQKPGQAPRLLIYGASSRAIGIPDRFSGGGSGTDFTLTISRLEPEDFAVYYCQCYGSTPPITFGPGTKVDIK
B7: C1415 (protein)
chain 1: EVQLVESGGGLVQPGGSLRLSCAASGFTVSSNYMSWVRQAPGKGLEWVSLIYSGGSTYYADSVKGRFTISRDNSKNTLYLQMNSLRAEDTAVYYCARDYGAYGRRNDFWGQGTLVTVSS
chain 2: DIQMTQSPSSLSASVGDRVTITCQASQDISNYLNWYQQKPGKAPKLLIYDASNLETGVPSRFSGSGSGTDFTFTISSLQPEDIATYYCQQYDNLPRTFGQGTKLEIK
B8: C1418 (protein)
chain 1: QVQLVESGGGVVQPGRSLRLSCAASGFTFSTYAMHWVRQAPGKGLEWVAVISYDGSNRYYADSVKGRFTISRDNSKNTLYLQMNSLRAEDTAVYYCARDGRTITMVQGVISGAFDIWGQGTMVTVSS
chain 2: DIQMTQSPSSLSASVGDRVTITCQASQDISNYLNWFQQKPGKAPKLLIYDASNLETGVPSRFSGSGSGAHFTFTISSLQPEDIATYYCQQYDNLPFTFGPGTKVDIK
B9: C2065 (protein)
chain 1: EVQLLESGGGLVQPGGSLRLSCAASRFTFGSYAMSWVRQAPGKGLEWVSTISGRGGSTYYADSVKGRFTISRDNSKNTLYLQMNGLRAEDTAVYYCAKGGDTAMVNAEYFQHWGQGTLVTVSS
chain 2: DIQMTQSPSTLSASVGDRVTITCRASQSISSWLAWYQQKPGKAPKLLIYDASSLESGVPSRFSGSGSGTEFTLTISSLQPDDFATYYCQQYKSLALTFGGGTKVEIK
B10: C2070 (protein)
chain 1: EVQLVQSGAEVKKPGESLKISCKGSGYRFTSYWIGWVRQMPGKGLEWMGIIYPDDSDIRYSPSFQGQVTISADKSISTAYLQWSSLKASDTAMYYCARQGPMGGGPFDYWGQGTLVTVSS
chain 2: DIQMTQSPSTLSASVGDRVTITCRASQSIDSWLAWYQQKPGKAPKFLIYDASSLESGVPSRFSGSGSGTEFTLSISSLQPDDFATYYCQQYSSNPYTFGQGTKLEIK
B11: C1174 (protein)
chain 1: QVQLVESGGGVVQPGKSLRLSCAASGFTFSSFGMHWVRQAPGKGLDWVAGISYDGSNKYCADSVKGRFTISRDNSKNTLYLQMNSLRVEDTAVYYCAKDPRNGISGTTGYFDYWGQGTLVTVSS
chain 2: SYELTQPPSVSVAPGQTARITCGGNNIGSKSVHWYQQKPGQAPVLVVYDDSDRPSGIPERFSGSNSGNTATLTISRVEAGDEADYYCQVWDSSSDHFWVFGGGTKLTVL
B12: C2061 (protein)
chain 1: VQLVESGGGVVQPGRSLRLSCAASGFTFRSYGMHWVRQAPGKGLEWVAVISYDASNKDYADSVKGRFTISRDNSKNTLYLQMNSLRAEDMAVYYCAKANAPYCSGGNCYSGYFDYWGQGTLVTVSS
chain 2: IRMTQSPSSLSASVGDRVTITCQASQDISNYLIWYQLKPGKAPKLLIYDASNLEAGVPSRFRGSGSGTDFTFTISSLQPEDIATYYCQQYDNLPLTFGPGTKVDIK
B13: C1252 (protein)
chain 1: QLQLQESGPGLVKPSETLSLTCTVSGGSISSSPYYWGWIRQPPGKGLEWIGSFYYGGSTNYNPSLKSRVTISVDTSKNQFSLKLTSVTAADTAVYYCARREWLRGGFDYWGQGTLVTVSS
chain 2: NFMLTQPHSVSESPGKTVTISCTGSSGSIASNYVQWYQQRPGSAPTTVIYEDNQRPSGVPERFSGSIDSSSNSASLTISGLKTEDEADYYCQSYDNSNLVFGGGTKLTVL
B14: C1253 (protein)
chain 1: QLQLQESGPGLVKPSETLSLTCTVSGGSISSSSYFWGWIRQPPGKGLEWIGTIYFSGSTYYNPSLKSRVTISVDTSKNQFSLRLSSVTAADTAVYYCARLTWLRGNFDYWGQGTLVTVSS
chain 2: NFMLTQPHSVSESPGKTVTISCTGSSGYIASNYVQWYQQRPGSAPTTVIYEDNQRPSGVPDRFSGSIDSSSNSASLTISGLKTEDEADYYCQSYDSANWVFGGGTKLTVL
B15: C1168 (protein)
chain 1: QVQLVQSGAEVRKPGASVKVSCKASGYTFTNYYLHWVRHAPGQGLEWMGIINPSGGSTTYAQKFQGRVTLTTDTSTSTVYMELSSLRSEDTAVYYCARDSAFIPHIEYGMDVWGQGTTVTVSS
chain 2: QSALTQPPSASGSPGQSVTISCTGTSSDVGGYNYVSWYQQHPGKAPKVMIYEVTKRPSGVPDRFSGSKSGNTASLTVSGLQAEDEADYYCSSYAGSNNLLFGGGTKLTVL
B16: C2072 (protein)
chain 1: QVQLVQSGAEVKKPGSSVKVSCKASGGTFSSYAISWVRQAPGQGLEWMGGIIPMFGTANYAQKFQGRVTITADESTSTDYMELSSLRSEDTAVYYCARGRAAAAPPFTWFDPWGQGTLVTVSS
chain 2: ELTQPPSVSGAPGQRVTISCTGSSSNIGAGYDVHWYQQLPGTAPKLLISGNSNRPSGVPGRFSGSKSGTSASLAITGLQAEDEADYYCQSYDSSLSGSVFGGGTKLTVL

The binders below were run against SARS-CoV-2 Wuhan-Hu-1 spike pseudovirus (assay: pseudovirus neutralization IC50; higher = weaker neutralization).
Protocol: (§1)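 Single-round luciferase reporter pseudovirus mixed with antibody dilutions and put on 293T-ACE2 cells for 48 h; signal relative to no-antibody wells, four-parameter fit.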

Row | Binder | pseudovirus neutralization IC50
1 | B1 | > 1 µg/mL
2 | B2 | > 1 µg/mL
3 | B3 | 0.28 µg/mL
4 | B4 | 0.14 µg/mL
5 | B5 | 0.0267 µg/mL
6 | B6 | > 1 µg/mL
7 | B7 | 0.0408 µg/mL
8 | B8 | 0.00412 µg/mL
9 | B9 | 0.00518 µg/mL
10 | B10 | 0.653 µg/mL
11 | B11 | > 1 µg/mL
12 | B12 | > 1 µg/mL
13 | B13 | 0.133 µg/mL
14 | B14 | 0.0857 µg/mL
15 | B15 | > 1 µg/mL
16 | B16 | 0.0232 µg/mL

These binders were tested against SARS-CoV-2 Wuhan-Hu-1 spike pseudovirus (assay: pseudovirus neutralization IC90; higher = weaker neutralization).
Protocol: as §1

Row | Binder | pseudovirus neutralization IC90
17 | B1 | > 1 µg/mL
18 | B2 | > 1 µg/mL
19 | B3 | > 1 µg/mL
20 | B4 | > 1 µg/mL
21 | B5 | > 1 µg/mL
22 | B6 | > 1 µg/mL
23 | B7 | 0.181 µg/mL
24 | B8 | 0.0234 µg/mL
25 | B9 | 0.0573 µg/mL
26 | B10 | > 1 µg/mL
27 | B11 | > 1 µg/mL
28 | B12 | > 1 µg/mL
29 | B13 | 0.913 µg/mL
30 | B14 | 0.391 µg/mL
31 | B15 | > 1 µg/mL
32 | B16 | 0.389 µg/mL

The binders below were run against SARS-CoV-2 Wuhan-Hu-1 spike receptor-binding domain (assay: ELISA binding EC50; higher = weaker binding; ELISA of recombinant human antibody on coated antigen, from 10 µg/ml in fourfold dilutions; four-parameter fit.).

Row | Binder | ELISA binding EC50
33 | B1 | 0.00314 µg/mL
34 | B2 | 0.00286 µg/mL
35 | B3 | 0.00245 µg/mL
36 | B4 | 0.00271 µg/mL
37 | B5 | 0.0016 µg/mL
38 | B6 | 0.00339 µg/mL
39 | B7 | 0.00259 µg/mL
40 | B8 | 0.002 µg/mL
41 | B9 | 0.00172 µg/mL
42 | B10 | 0.0024 µg/mL
43 | B11 | 0.0021 µg/mL
44 | B12 | 0.00171 µg/mL
45 | B13 | 0.0026 µg/mL
46 | B14 | 0.00372 µg/mL
47 | B15 | 0.00468 µg/mL
48 | B16 | 0.00296 µg/mL
